The results in this text go back to ChEMBL document CHEMBL4888484, “Replenishing the malaria drug discovery pipeline: Screening and hit evaluation of the MMV Hit Generation Library 1 (HGL1) against asexual blood stage Plasmodium falciparum ,using a nano luciferase reporter read-out” (2022).

SMILES strings stand for the structures. About 540 (0.36%) of roughly 150,000 compounds showed an effect of 50% or more. Some of the results follow.

The subject of this assay is Plasmodium falciparum. Briefly: Primary screen in NF54 nanoGlo assay, in single point, at 2uM, 72h; a lower Z score goes with more inhibition. Type of assay: functional, Erythrocyte. The note with it: timepoint 72 hour.
For the compound `COc1ncccc1CNc1nc2ccccc2o1`, the “% Inhibition” value is -16% and the Z score was found to be 2.99.

For the compound `COc1ccc(-c2cccc(C(=O)N3CCNC(=O)[C@@H]3CCO)c2)c(C)c1`, the “% Inhibition” value is -9% and the Z score is listed as 1.13.

For the compound `Cc1ccc(OC2CCN(C(=O)c3ncoc3C3CC3)CC2)cc1`, the “% Inhibition” value is given as -10% and the Z score is recorded as 1.88.

For `O=C(Nc1ccc(-c2nncs2)cc1)N[C@H]1CCC12CCCC2`, the “% Inhibition” value is reported as -12% and the Z score turned out to be 1.48.

With `Cc1cc(C(=O)Nc2cnn(CC(=O)N3CC(C)OC(C)C3)c2)ccn1` (stereo unspecified), the “% Inhibition” value was determined as 8% and the Z score is -0.96.

`C[C@](Nc1ccccc1)(C(=O)NCc1ccc(N2CCCC2=O)cc1)c1ccccc1`: the “% Inhibition” value is -14% and the Z score is 1.32.

Regarding `CC1=NN=C(O)/C(=C\c2ccccc2)N1`, the “% Inhibition” value was -15% and the Z score stood at 1.7.

Take `COc1cc(NC(=O)c2cc(NC3CCC3)cc(S(=O)(=O)N(C)C)c2)cc(OC)c1`: the “% Inhibition” value is -12% and the Z score is reported as 1.38.

For `O=C(Nc1ccccc1)OCc1ccc(-c2ccc(Cl)cc2)o1`, the “% Inhibition” value is given as 41% and the Z score is on record as -5.23.

For the compound `Cc1sc2ncnc(N3CCc4onc(C(=O)N(C)C)c4C3)c2c1C`, the “% Inhibition” value is listed as -7% and the Z score amounted to 0.67.

With `O=C1CC[C@H](Nc2cnc3ccccc3n2)C(=O)N1`, the “% Inhibition” value was -8% and the Z score was determined as 1.34.

Turning to `CC(C)(C)c1nc(CN2CCC[C@H]2C2CCCCC2)no1`, the “% Inhibition” value was -2% and the Z score amounted to 0.19.

Regarding `CC(=C(F)C(=O)N1CCC(Cc2c[nH]cn2)CC1)C1CC1`, the “% Inhibition” value is -4% and the Z score stood at 0.77.

For the compound `O=C(CCCn1cncn1)NC1CCCCC1Oc1ccccc1` (stereo unspecified), the “% Inhibition” value is listed as -9% and the Z score came out at 0.93.

On to `COc1cc2c(cc1C(=O)N[C@H]1CCOC[C@@H]1OCCN(C)C)CCC2`, for which the “% Inhibition” value is reported as -17% and the Z score is 1.81.

On to `Cc1ccc(-c2cc3n(n2)CCC(=O)N3CC(=O)NCc2ccc3c(c2)OCO3)cc1`, for which the “% Inhibition” value amounted to 4% and the Z score was -0.46.

`CC1CCN(CC(=O)NC(C)(C)C)C(C(C)O)C1` (stereo unspecified): the “% Inhibition” value came out at 4% and the Z score is listed as -0.59.

Regarding `COc1ccccc1Nc1nc(N)nc(CN2CC[S@@+]([O-])C(C)(C)C2)n1`, the “% Inhibition” value came out at 0% and the Z score was 0.01.

As to `CC1CCN(C[C@H]2CCCN(C(=O)CCc3ccccc3)CC2)CC1`, the “% Inhibition” value is -8% and the Z score is on record as 1.29.

On to `CN(Cc1cccc(OC(F)F)c1)c1nnc(-c2ccon2)s1`, for which the “% Inhibition” value was -15% and the Z score worked out at 2.01.

Consider `O=C(NCCc1cc2ccccc2o1)c1cccnc1`, for which the “% Inhibition” value amounted to 2% and the Z score is on record as -0.26.

As to `O=S(=O)(c1cccc(-c2ccc(Cl)cc2)c1)N1CCC(n2ccnn2)CC1`, the “% Inhibition” value is on record as -15% and the Z score worked out at 2.4.

Regarding `CC(C)[C@H](NC(=O)Nc1ccccc1C(F)(F)F)C(=O)O`, the “% Inhibition” value stood at 3% and the Z score was -0.37.

`CC[C@H]1CCCN(C(C)(C)CNC(=O)c2cc(O)ccc2C(F)(F)F)C1`: the “% Inhibition” value is reported as 1% and the Z score was -0.27.

On to `C[C@H](O)CN1CCN(C(=O)c2cccc(Cn3ccnc3)c2)CC1`, for which the “% Inhibition” value was -1% and the Z score is listed as 0.08.

`COc1ccc(F)c(-c2cnc3nnc(C)n3c2)c1`: the “% Inhibition” value is given as -5% and the Z score is listed as 0.65.

For `O[C@H]1CC[C@@H]1Nc1nc2cc(F)ccc2o1`, the “% Inhibition” value was -10% and the Z score is 1.93.

Consider `CC(CC(=O)NC(C)c1cnn(C)c1)C(=O)c1ccc(Cl)cc1` (stereo unspecified), for which the “% Inhibition” value is listed as -9% and the Z score is 1.27.

In the case of `NC(=O)CC1(NC(=O)Nc2cccc3c2CCO3)CCC1`, the “% Inhibition” value is -9% and the Z score is recorded as 1.29.

As to `CN1CC(=O)N(CCCC(=O)N2CCC(CC(F)(F)F)CC2)C1=O`, the “% Inhibition” value came out at 0% and the Z score was -0.04.

Consider `O=C(c1ccc(F)cc1)c1ccc(CN2C(=O)c3ccccc3C2=O)o1`, for which the “% Inhibition” value is reported as -13% and the Z score stood at 2.39.

Turning to `CCN(Cc1noc(CC(C)C)n1)C(=O)CCn1cncn1`, the “% Inhibition” value turned out to be 3% and the Z score is on record as -0.57.

As to `CCc1cccc(NC(=O)CN2C=NS(=O)(=O)c3ccc(C)cc32)c1`, the “% Inhibition” value is given as 13% and the Z score is -1.57.

Turning to `CC(C)NC1CCN(c2ccc(C3OCCO3)c(Cl)c2C#N)CC1`, the “% Inhibition” value was found to be 5% and the Z score is listed as -0.8.

As for `CN(C(=O)CN1CCC(C(=O)NCc2ccccc2)CC1)c1ccccc1`, the “% Inhibition” value is 4% and the Z score is -0.6.

Consider `CC(C)COc1cncc(N2CC3COCC(C2)O3)n1`, for which the “% Inhibition” value is listed as 1% and the Z score is recorded as -0.17.

In the case of `COCCc1nc(CNC(=O)N(C)Cc2cc3cc(F)ccc3[nH]2)no1`, the “% Inhibition” value is listed as -3% and the Z score was determined as 0.5.

`CC(C)(C)c1cc(C(=O)N2CCc3c(F)ccc(C(=O)O)c3C2)[nH]n1`: the “% Inhibition” value is recorded as -5% and the Z score is listed as 0.71.

For `COc1ccc(-c2nn(-c3ccccc3F)cc2CN2C[C@H]3CC[C@H]2C3)cc1`, the “% Inhibition” value was -10% and the Z score is given as 1.35.

For `O=C(NCc1cc(F)cc(F)c1)c1nn(-c2ccccc2)c2ccccc2c1=O`, the “% Inhibition” value is listed as -5% and the Z score is on record as 0.63.

For the compound `CCC[C@@H](C#N)NC(=O)c1sc(-c2cnn(C)c2)nc1C`, the “% Inhibition” value was -4% and the Z score amounted to 0.51.

With `CCC(=O)N(C)[C@@H](Cc1ccc(F)cc1F)C1CCN(C(=O)c2cccc(N3CCCC3=O)c2)CC1`, the “% Inhibition” value turned out to be 1% and the Z score is recorded as -0.25.

Regarding `CCc1nn(C)cc1NC(=O)NCc1cc(C)nc(N)c1`, the “% Inhibition” value is listed as -6% and the Z score stood at 0.65.

What is called % Inhibition is the drop in the measured response relative to a control, in per cent.
